# The entries come from a sample that favours the strongest signals as a whole.
# Columns and labels:
# Experiment in all cases: glycan array binding signal (z-score within array); higher = stronger binding
# Settings in all cases: glycan notation: IUPAC condensed, linker removed
# [1] = system: Fuc(a1-2)Gal6S(b1-4)Glc
# Procedure, shortened: (§1)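 Glycan array data came from 3228 arrays in the Consortium for Functional Glycomics database, and only arrays with an available protein sequence were kept. Glycan names were put into IUPAC-condensed notation, and columns mapping to the same glycan were averaged. The binding signal is a within-array Z-score, averaged across arrays of one protein sequence run at different concentrations or buffers and across linkers. A negative Z-score can be read as non-binding.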
# [2] = system: Fuc(a1-2)[Gal(a1-3)]Gal(b1-4)Glc
# Procedure, shortened: as §1
# [3] = system: Fuc(a1-2)Gal
# Procedure, shortened: as §1
# [4] = system: Fuc(a1-2)GlcNAc
# Procedure, shortened: as §1
# [5] = system: Fuc(a1-2)[GalNAc(a1-3)]Gal(b1-3)GlcNAc(b1-2)Man(a1-3)[Fuc(a1-2)[GalNAc(a1-3)]Gal(b1-3)GlcNAc(b1-2)Man(a1-6)]Man(b1-4)GlcNAc(b1-4)GlcNAc
# Procedure, shortened: as §1
# [6] = system: Fuc(a1-2)[Gal(a1-3)]Gal(b1-3)GlcNAc(b1-2)Man(a1-3)[Fuc(a1-2)[Gal(a1-3)]Gal(b1-3)GlcNAc(b1-2)Man(a1-6)]Man(b1-4)GlcNAc(b1-4)GlcNAc
# Procedure, shortened: as §1
# [7] = system: Fuc(a1-2)[Gal(a1-3)]Gal(b1-4)GlcNAc
# Procedure, shortened: as §1
# [8] = system: Fuc(a1-2)[GalNAc(a1-3)]Gal(b1-3)GalNAc(b1-3)Gal(a1-4)Gal(b1-4)Glc
# Procedure, shortened: as §1
# [9] = system: Fuc(a1-2)[Gal(a1-3)]Gal(b1-3)GlcNAc(b1-6)GalNAc
# Procedure, shortened: as §1
# [10] = system: Fuc(a1-2)[Gal(a1-3)]Gal(b1-4)GlcNAc(b1-3)[Fuc(a1-2)[Gal(a1-3)]Gal(b1-4)GlcNAc(b1-6)]GalNAc
# Procedure, shortened: as §1
# [11] = system: Fuc(a1-2)[GalNAc(a1-3)]Gal(b1-3)GlcNAc(b1-2)Man(a1-3)[Fuc(a1-2)[GalNAc(a1-3)]Gal(b1-3)GlcNAc(b1-2)Man(a1-6)]Man(b1-4)GlcNAc(b1-4)[Fuc(a1-6)]GlcNAc
# Procedure, shortened: as §1
# [12] = system: Fuc(a1-2)[Gal(a1-3)]Gal(b1-3)GlcNAc(b1-3)GalNAc
# Procedure, shortened: as §1
# [13] = system: Fuc(a1-2)[Gal(a1-3)]Gal(b1-4)GlcNAc(b1-6)GalNAc
# Procedure, shortened: as §1
# [14] = system: Fuc(a1-2)[Gal(a1-3)]Gal(b1-4)[Fuc(a1-3)]GlcNAc(b1-3)GalNAc
# Procedure, shortened: as §1
# [15] = system: Fuc(a1-2)[Gal(a1-3)]Gal(b1-4)GlcNAc(b1-2)Man(a1-3)[Fuc(a1-2)[Gal(a1-3)]Gal(b1-4)GlcNAc(b1-2)Man(a1-6)]Man(b1-4)GlcNAc(b1-4)GlcNAc
# Procedure, shortened: as §1
# [16] = system: Fuc(a1-2)[Gal(a1-3)]Gal(b1-4)GlcNAc(b1-3)GalNAc
# Procedure, shortened: as §1
# [17] = system: Fuc(a1-2)[Gal(a1-3)]Gal(b1-4)GlcNAc(b1-2)Man(a1-3)[Fuc(a1-2)[Gal(a1-3)]Gal(b1-4)GlcNAc(b1-2)Man(a1-6)]Man(b1-4)GlcNAc(b1-4)[Fuc(a1-6)]GlcNAc
# Procedure, shortened: as §1
# [18] = system: Fuc(a1-2)[Gal(a1-3)]Gal(b1-4)[Fuc(a1-3)]GlcNAc
# Procedure, shortened: as §1
substance,measurement,setting,value
Gal 8 long (Homo sapiens) (chain not printed),glycan array binding signal (z-score),[1],-0.313
same,glycan array binding signal (z-score),[2],2.99
Angiogenin (Homo sapiens) (chain not printed),glycan array binding signal (z-score),[3],-0.271
VWF (Homo sapiens) (chain not printed),glycan array binding signal (z-score),[3],-0.065
H-Ficolin (Homo sapiens) (chain not printed),glycan array binding signal (z-score),[4],2.76
same,glycan array binding signal (z-score),[5],-0.437
Gal 3 (Homo sapiens) (chain not printed),glycan array binding signal (z-score),[6],-0.148
same,glycan array binding signal (z-score),[7],4.77
same,glycan array binding signal (z-score),[8],-0.346
Thrombomodulin Extracellular (Homo sapiens) (chain not printed),glycan array binding signal (z-score),[6],0.031
same,glycan array binding signal (z-score),[9],-0.274
same,glycan array binding signal (z-score),[10],3.27
same,glycan array binding signal (z-score),[11],-0.105
FGF2 (chain not printed),glycan array binding signal (z-score),[12],0.31
same,glycan array binding signal (z-score),[13],1.36
same,glycan array binding signal (z-score),[14],0.734
MBP (Homo sapiens) (chain not printed),glycan array binding signal (z-score),[15],-0.019
same,glycan array binding signal (z-score),[16],-0.436
NCAM1 (Homo sapiens) (chain not printed),glycan array binding signal (z-score),[17],-0.273
same,glycan array binding signal (z-score),[14],3.59
same,glycan array binding signal (z-score),[18],4.51
Meso764 (Homo sapiens) (chain not printed),glycan array binding signal (z-score),[17],0.562
Gal 8-short (Homo sapiens) (chain not printed),glycan array binding signal (z-score),[7],1.6
Galectin-8 C-terminal CRD (Homo sapiens) (chain not printed),glycan array binding signal (z-score),[2],3.08
M-Ficolin Y271F (Homo sapiens) (chain not printed),glycan array binding signal (z-score),[18],0.096
M-Ficolin G221F A256V (Homo sapiens) (chain not printed),glycan array binding signal (z-score),[5],-0.355
